Laboratory results from PubChem BioAssay AID1458 (National Center for Advancing Translational Sciences (NCATS), 2008).
The campaign covered roughly 210,000 compounds. About 5,900 (2.8%) were called active. This list was built around the results that the source calls inconclusive (neither active nor inactive); the mix of calls is not that of the screen. The call rests on the fitted dose curve; in most records, active means well fitted activation curve with a large enough effect; inconclusive means small, poorly fitted or top-dose-only effect; inactive means no such curve, though single readings can be large or run the other way. Where the call is inconclusive, the potency comes from a doubtful curve fit.

Test: qHTS Assay for Enhancers of SMN2 Splice Variant Expression; further: nearly all actives have a fitted effect of over 55% in size; on activity change, positive = activation: % of control where 0% means no effect
Conditions: HEK293 SMN2-luciferase splicing reporter, luminescence, 30-36 h; activity change, positive = activation: at 46.1 µM (top of the series)
Procedure, shortened: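 HEK293 cells carry an SMN2 minigene-luciferase reporter in which exon 7 inclusion puts luciferase in frame. Cells were seeded at 2000 cells/well, attached for 10-12 hours, then exposed to compounds for 30-36 hours at 37C before ONE-Glo luminescence.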
Potency means the concentration at half of the fitted maximal effect; tags describe the fitted curve by direction and shape.

Structure (SMILES)	Potency	activity change, positive = activation
O=C(Nc1ccc2oc(-c3ccc4ccccc4c3)nc2c1)c1cc(Br)ccc1Cl	inconclusive: 14.1 µM [activator, single point]	–
Cc1cc(Cl)c(S(=O)(=O)N/N=C/c2ccc3c(c2)OCO3)c(Cl)c1	inconclusive: 3.98 µM [activator, partial curve, poor fit]	–
CC(C)NC(=O)CN(CCc1ccccc1)S(C)(=O)=O	inconclusive: 35.5 µM [activator, single point]	–
Cc1ccc(NC(=O)c2cc3c([nH]c2=O)CC(C)(C)CC3=O)c(C)c1	–	inactive: -2.81%
CC(CN1CCCC1)C(=O)NN (stereo unspecified)	–	inactive: -8.33%
O=C(N/N=C/c1c(-c2ccccc2)[nH]c2ccccc12)c1cccnc1	inconclusive: 10 µM [activator, partial curve]	–
CCN(CC)c1ccc(NC(=O)c2ccco2)cc1	active: 3.16 µM	–
C=CC1=C2C=C(C3CC3)N(CCCCO)C=C2C(=O)C(C)(OC(=O)c2ccco2)C1=O (stereo unspecified)	–	inactive: -1.57% [at 9.22 µM]
CC1(C)CN(c2cccc(-c3ccnc4ncnn34)c2)C1=O	inconclusive: 7.94 µM [activator, partial curve, poor fit]	–
Cn1c(=O)n(C)c2cc(C(N)=O)ccc21	active: 22.4 µM	–
O=C(Nc1ccccc1)c1nc2ccccc2s1	active: 3.16 µM	–
CC1=C(C(=O)Nc2ccc(Cl)cc2)C(C(C)C)n2nc(SCc3ccc(Cl)cc3)nc2N1 (stereo unspecified)	–	inactive: 0.55%
CCOc1cc(C(=O)N2CCN(c3ccc(C(C)=O)cc3)CC2)cc(OCC)c1OCC	inconclusive: 0.0112 µM [activator, full curve, poor fit]	–
O=C(NCc1ccccc1Cl)c1cc(=O)[nH]c2ccc(S(=O)(=O)N3CCCCC3)cc12	–	inactive: -5.11%
Cc1cc(C)n(C(=O)CNC(=O)C2COc3ccccc3O2)n1 (stereo unspecified)	inconclusive: 6.31 µM [activator, single point]	–
CCc1cc(=O)oc2cc(OCC(N)=O)c(Cl)cc12	inconclusive: 2.82 µM [activator, full curve]	–
O=C(O)c1ccc(N/N=C/c2ccc(-c3ccccc3)cc2)cc1	active: 3.98 µM	–
Cc1c(-c2nc(N)nc(Nc3ccccc3F)n2)oc2ccccc12	active: 11.2 µM	–
CCNC(=O)NC(=O)COC(=O)c1ccccc1SCC(=O)NC(=O)NCC	active: 8.91 µM	–
CN1C(=O)CC(c2ccco2)Sc2ccccc21 (stereo unspecified)	inconclusive: 12.6 µM [activator, partial curve, poor fit]	–
CCOc1ccc(C2=Nc3ccccc3C(c3ccc(N4CCOCC4)cc3)=NN2)cc1	inconclusive: 17.8 µM [activator, partial curve]	–
CCC(=O)Nc1nc2cc(OC)ccc2s1	inconclusive: 10 µM [activator, partial curve]	–
Cn1sc(NC(=O)c2ccc(Cl)cc2)nc1=O	inconclusive: 14.1 µM [activator, partial curve, poor fit]	–

Structure (SMILES)	Potency	activity change, positive = activation
O=C(NCCSC1CCCCC1)c1ccccc1	inconclusive: 11.2 µM [activator, partial curve]	–
Cn1cc(C(=O)NCCN2CCN(c3cccc(Cl)c3)CC2)c2c3ccccc3n(C)c2c1=O	inconclusive: 0.1 µM [activator, full curve, poor fit]	–
Cc1ccc(OCCSc2nnc(NC(=O)c3ccco3)s2)cc1	–	inactive: 3.57%
COc1cccc(OCc2nnc(SCC(=O)OCc3ccccc3)o2)c1	inconclusive: 5.62 µM [activator, single point]	–
CC(C)NC(=O)c1onc(CSc2ccc(Cl)cc2)c1C(=O)O	inconclusive: 35.5 µM [activator, single point]	–
CS(=O)(=O)N1CCCc2cc(C(=O)Nc3cccc(C(F)(F)F)c3)ccc21	–	inactive: -56%
CC(C)CC(=O)N[C@H](C(=O)N[C@H](C(=O)N[C@@H](CC(C)C)[C@H](O)CC(=O)N[C@@H](C)C(=O)N[C@@H](CC(C)C)[C@H](O)CC(=O)O)C(C)C)C(C)C	–	inactive: 1.88% [at 20.6 µM]
O=C(Nc1ccc(Cc2ccc(NC(=O)C3CC3)cc2)cc1)C1CC1	–	inactive: -24.7%
Cc1cc(N=Cc2c(CO)cnc(C)c2O)c(N=Cc2c(CO)cnc(C)c2O)cc1C.[Zn]	–	inactive: -15.4% [at 9.22 µM]
O=C(N/N=C/c1ccccc1F)c1csc2c1CCCC2	active: 8.91 µM	–
O=C1C(=O)N(CCN2CCOCC2)C(c2ccccn2)/C1=C(/O)c1ccc(F)cc1 (stereo unspecified)	–	inactive: 1.26%
O=C(CCC1CCCC1)Nc1ccc([N+](=O)[O-])cn1	inconclusive: 3.16 µM [activator, partial curve, poor fit]	–
COc1cccc(C2=NOC(C(=O)Nc3cccnc3Cl)C2)c1 (stereo unspecified)	–	inactive: -29.3%
CCC(=O)n1nc(-c2ccc(OC)cc2)nc1SC	inconclusive: 11.2 µM [activator, partial curve, poor fit]	–
CC1CC(C)CN(C(=O)c2ccc3c(c2)N(Cc2ccccc2)CCS3)C1 (stereo unspecified)	inconclusive: 6.31 µM [activator, single point]	–
COC(=O)c1cccc(NC(=O)c2nsc3ccccc23)c1	inconclusive: 5.62 µM [activator, single point]	–
COc1ccc(CCNC(=O)c2ccc3c(c2)N(Cc2ccccc2F)C(=O)c2ccccc2S3=O)cc1OC (stereo unspecified)	inconclusive: 14.1 µM [activator, single point]	–
COc1cccc(OCc2cc(=O)n3c(-c4ccccc4)csc3n2)c1	inconclusive: 22.4 µM [activator, single point]	–
O=c1oc(-c2cccs2)nc2sc3c(c12)CCCC3	inconclusive: 12.6 µM [activator, partial curve]	–
COC(=O)c1ccc(C(=O)OC)c(NS(C)(=O)=O)c1	inconclusive: 11.2 µM [activator, partial curve, poor fit]	–
COC(=O)N/N=C(\C)c1ccc(C)c([N+](=O)[O-])c1	inconclusive: 0.282 µM [activator, full curve, poor fit]	–
CCNc1ccc(Br)cc(C(=O)/C=C/c2ccc3c(c2)OCO3)c1=O	–	inactive: -32.8%
C=C[C@@H](C)[C@](C)(O)c1ccccc1	–	inactive: 0.116%
